The supplement of paper PMC11181314
Some of the results follow. Single values of this set are uncertain.

System: U2OS
Assay: Cell Painting induction (percent of morphological features significantly changed vs DMSO); higher = stronger morphological change
Settings: 10 µM, 20 h
Experimental: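 Cell Painting assay in U2OS cells: compounds at 10 µM for 20 h, six dyes, 579 robust CellProfiler features as Z-scores vs DMSO median (MAD). Induction is the % of significantly changed features (active if ≥5%); relative cell count is in % of DMSO. The primary run holds DCM compounds preselected for induction ≥10%; the confirmation repeat defines active compounds (370 of 549). Replicate agreement is low, attributed to precipitation.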

[1] = run: primary screen (compounds selected for induction >=10%)
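Further: stains mark DNA, RNA and nucleoli, ER, actin, Golgi, plasma membrane and mitochondria, read by high-content imaging, with DMSO controls at matching solvent concentration.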

O=S(=O)(c1ccccc1)c1nc(-c2ccc(F)cc2)oc1NCC1CCCO1 (configuration not stated)
Cell Painting induction (run: confirmation repeat): active: 25.2% | Cell Painting induction [1]: 18.3%

COc1ccc(S(=O)(=O)N(CC(=O)NC(C(C)C)C(C)C)c2ccc(C)cc2)cc1OC
Cell Painting induction (run: confirmation repeat): active: 5.2% | Cell Painting induction [1]: 11.6%

CN1CCN(C(=O)/C(=C/c2cn(S(=O)(=O)N(C)C)c3ccccc23)NC(=O)c2ccccc2F)CC1
Cell Painting induction (run: confirmation repeat): active: 14.7% | Cell Painting induction [1]: 11.2%

CCOC(=O)C1(C)C=C(Nc2ccc(OCC)cc2)C(=O)N1c1ccccc1 (configuration not stated)
Cell Painting induction (run: confirmation repeat): active: 11.6% | Cell Painting induction [1]: 11.6%

COc1ccccc1N1CCN(C(=O)C2CCC(CNS(=O)(=O)c3ccc(NC(C)=O)cc3)CC2)CC1 (configuration not stated)
Cell Painting induction (run: confirmation repeat): active: 32.1% | Cell Painting induction [1]: 37.3%

Cn1c(=O)c2c(nc(CN3CCN(c4ccccc4)CC3)n2Cc2ccccc2Cl)n(C)c1=O
Cell Painting induction (run: confirmation repeat): inactive: 2.1% | Cell Painting induction [1]: 24.5%

COc1cccc(N2CCN(C(=O)CN(c3cc(C)cc(C)c3)S(=O)(=O)c3c(C)noc3C)CC2)c1
Cell Painting induction (run: confirmation repeat): inactive: 4.1% | Cell Painting induction [1]: 15.4%

Cc1nn2c(N3CCOCC3)cc(C(C)C)nc2c1-c1ccccc1
Cell Painting induction (run: confirmation repeat): inactive: 0% | Cell Painting induction [1]: 24.4%

CCn1c(=O)n(CC)c2cc(N3CCCC3)c(NC(=O)c3ccccc3F)cc21
Cell Painting induction (run: confirmation repeat): active: 11.7% | Cell Painting induction [1]: 11.9%

COc1cc(NC(=O)c2cnc(NCc3ccccc3)nc2C)cc(OC)c1OC
Cell Painting induction (run: confirmation repeat): active: 12.1% | Cell Painting induction [1]: 10.7%

COC(=O)c1cc(=O)n(Cc2cccs2)/c(=N/Cc2cccs2)s1
Cell Painting induction (run: confirmation repeat): inactive: 0.9% | Cell Painting induction [1]: 25.4%

CCCCN(CC)CCNC(=O)c1cc2c(=O)[nH]c3ccccc3c2n1C
Cell Painting induction (run: confirmation repeat): active: 5.5% | Cell Painting induction [1]: 35.6%

Cc1ccc(-c2cc(C(F)F)n3ncc(C(=O)NCc4ccccc4F)c3n2)cc1
Cell Painting induction (run: confirmation repeat): inactive: 0.5% | Cell Painting induction [1]: 12.8%

O=C(CSc1nc(O)c2ccccc2n1)Nc1ccccc1C(F)(F)F
Cell Painting induction (run: confirmation repeat): inactive: 0% | Cell Painting induction [1]: 11.1%

COC(=O)c1ccc(N2CCN(C)CC2)c(NC(=O)COc2cccc(C)c2)c1
Cell Painting induction (run: confirmation repeat): inactive: 0.3% | Cell Painting induction [1]: 20%

CCCCN(CC)S(=O)(=O)c1ccc(F)c(C(=O)Nc2cccc(C)c2C)c1
Cell Painting induction (run: confirmation repeat): active: 9.3% | Cell Painting induction [1]: 19%

CCCn1c2ccccc2c2nnc(SCC(=O)Nc3cc(C)on3)nc21
Cell Painting induction (run: confirmation repeat): inactive: 0.7% | Cell Painting induction [1]: 17.8%

O=C(CCc1nnc2ccc(N3CCCCC3)nn12)NCC1CCN(Cc2ccc(F)cc2)CC1
Cell Painting induction (run: confirmation repeat): active: 30.2% | Cell Painting induction [1]: 20.7%

CCc1nc2ccc(C(=O)NCCCN3CCN(c4ccccc4F)CC3)cc2nc1CC
Cell Painting induction (run: confirmation repeat): active: 51.3% | Cell Painting induction [1]: 45.8%

CCOc1ccc(-n2c(SCCc3ccccc3)nc3sc4c(c3c2=O)CCN(C)C4)cc1
Cell Painting induction (run: confirmation repeat): inactive: 0.2% | Cell Painting induction [1]: 12.1%

CCCN1CCN(CCCNC(=O)CN2C(=O)COc3ccc(C(C)(C)C)cc32)CC1
Cell Painting induction (run: confirmation repeat): inactive: 3.8% | Cell Painting induction [1]: 13.1%

COc1ccc(CNC(=O)c2cc3c(O)nc4ccccc4c3n2C)cc1
Cell Painting induction (run: confirmation repeat): active: 21.6% | Cell Painting induction [1]: 26.8%

COC(=O)c1cc(NC(=O)C2(S(=O)(=O)c3ccc(Cl)cc3)CC2)cc(C(=O)OC)c1
Cell Painting induction (run: confirmation repeat): active: 11.9% | Cell Painting induction [1]: 11.7%

COc1ccc(NC(=O)C2Cc3cc(S(=O)(=O)N4CCCCC4)ccc3N2C(C)=O)cc1Cl (configuration not stated)
Cell Painting induction (run: confirmation repeat): active: 13.3% | Cell Painting induction [1]: 15.2%

Cc1nc2nc(SCC(=O)NCCCN3CCCCC3)nn2c(C)c1Cc1ccccc1
Cell Painting induction (run: confirmation repeat): inactive: 4.1% | Cell Painting induction [1]: 15.9%

Cc1ccc(C)c(CSc2nc3ccncc3n2CC(=O)Nc2ccc(C)c(C)c2)c1
Cell Painting induction (run: confirmation repeat): active: 12.6% | Cell Painting induction [1]: 29.7%
